# The supplement of paper PMC8728848
# The list shows a part of the results.
# B1: MSMEG3662-2a (Mycobacterium smegmatis), A0QYH7_MYCS2 (protein)
# chain: MGDTLTAGQKLERGGSLQSGNGAYTLTLQDDGNLVLYARDKAVWSTGTNGQDVVRAEVQTDGNFVLYTAEKPVWHTDTKGKKEVKLVLQDDRNLVLYAKDGPAWSSKTDTTEPPPPAPEPEKEAEVAPAAAEEAAPAPVAEPAPAEPAPAAPPPAPPAPRTYTVVSGDTLWAIAERFYGDGSKYQQIADASGIANPDLIHPGQVLTIP
# Legend:
# Experiment in all cases: glycan array binding signal (z-score within array); higher = stronger binding
# Conditions in all cases: glycan notation: IUPAC condensed, linker removed
# [1] = biological target: Gal(a1-3)Gal
# How it was run: (§1)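 The Consortium for Functional Glycomics database supplied 3228 glycan arrays, of which those lacking an available protein sequence were dropped. The binding signal, a within-array Z-score, was averaged across arrays of the same protein sequence and across linkers. Negative scores can be read as non-binding.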
# [2] = biological target: Gal(a1-3)Gal(b1-3)GlcNAc
# How it was run: as §1
# [3] = biological target: Gal(a1-3)Gal(b1-3)GlcNAc(b1-2)Man
# How it was run: as §1
# [4] = biological target: Gal(a1-3)Gal(b1-3)GlcNAc(b1-2)Man(a1-3)[Gal(a1-3)Gal(b1-3)GlcNAc(b1-2)Man(a1-6)]Man(b1-4)GlcNAc(b1-4)GlcNAc
# How it was run: as §1
# [5] = biological target: Gal(a1-3)Gal(b1-3)GlcNAc(b1-3)GalNAc
# How it was run: as §1
# [6] = biological target: Gal(a1-3)Gal(b1-3)GlcNAc(b1-6)GalNAc
# How it was run: as §1
# [7] = biological target: Gal(a1-3)Gal(b1-3)[Fuc(a1-4)]GlcNAc(b1-2)Man(a1-3)[Gal(a1-3)Gal(b1-3)[Fuc(a1-4)]GlcNAc(b1-2)Man(a1-6)]Man(b1-4)GlcNAc(b1-4)GlcNAc
# How it was run: as §1
# [8] = biological target: Gal(a1-3)Gal(b1-4)Glc
# How it was run: as §1
# [9] = biological target: Gal(a1-3)Gal(b1-4)GlcNAc
# How it was run: as §1
# [10] = biological target: Gal(a1-3)Gal(b1-4)GlcNAc(b1-2)Man
# How it was run: as §1
# [11] = biological target: Gal(a1-3)Gal(b1-4)GlcNAc(b1-2)Man(a1-3)[Gal(a1-3)Gal(b1-4)GlcNAc(b1-2)Man(a1-6)]Man(b1-4)GlcNAc(b1-4)GlcNAc
# How it was run: as §1
# [12] = biological target: Gal(a1-3)Gal(b1-4)GlcNAc(b1-3)GalNAc
# How it was run: as §1
# [13] = biological target: Gal(a1-3)Gal(b1-4)GlcNAc(b1-6)GalNAc
# How it was run: as §1
# [14] = biological target: Gal(a1-3)Gal(b1-4)[Fuc(a1-3)]GlcNAc
# How it was run: as §1
# [15] = biological target: Gal(a1-3)Gal(b1-4)[Fuc(a1-3)]GlcNAc(b1-2)Man(a1-3)[Gal(a1-3)Gal(b1-4)[Fuc(a1-3)]GlcNAc(b1-2)Man(a1-6)]Man(b1-4)GlcNAc(b1-4)GlcNAc
# How it was run: as §1
# [16] = biological target: Gal(a1-3)GalNAc
# How it was run: as §1
# [17] = biological target: Gal(a1-3)[Gal(a1-4)]Gal(b1-4)GlcNAc
# How it was run: as §1
# [18] = biological target: Gal(a1-4)Gal(b1-3)GlcNAc(b1-2)Man(a1-3)[Gal(a1-4)Gal(b1-3)GlcNAc(b1-2)Man(a1-6)]Man(b1-4)GlcNAc(b1-4)GlcNAc
# How it was run: as §1
# [19] = biological target: Gal(a1-4)Gal(b1-4)Glc
# How it was run: as §1
# [20] = biological target: Gal(a1-4)Gal(b1-4)GlcNAc
# How it was run: as §1
# [21] = biological target: Gal(a1-4)Gal(b1-4)GlcNAc(b1-2)Man(a1-3)[Gal(a1-4)Gal(b1-4)GlcNAc(b1-2)Man(a1-6)]Man(b1-4)GlcNAc(b1-4)GlcNAc
# How it was run: as §1
# [22] = biological target: Gal(a1-4)Gal(b1-4)GlcNAc(b1-3)Gal(b1-4)Glc
# How it was run: as §1
# [23] = biological target: Gal(a1-4)GlcNAc
# How it was run: as §1
# [24] = biological target: Gal(a1-6)Glc
# How it was run: as §1
# [25] = biological target: Gal(b1-2)Gal
# How it was run: as §1
# [26] = biological target: Gal(b1-3)Gal
# How it was run: as §1
# [27] = biological target: Gal(b1-3)Gal(b1-4)GlcNAc
# How it was run: as §1
# [28] = biological target: Gal(b1-3)GalNAc
# How it was run: as §1
# [29] = biological target: Gal(b1-3)GalNAc(a1-3)[Fuc(a1-2)]Gal(b1-4)Glc
# How it was run: as §1
# [30] = biological target: Gal(b1-3)GalNAc(a1-3)[Fuc(a1-2)]Gal(b1-4)GlcNAc
# How it was run: as §1
# [31] = biological target: Gal(b1-3)GalNAc(b1-3)Gal
# How it was run: as §1
# [32] = biological target: Gal(b1-3)GalNAc(b1-3)Gal(a1-4)Gal(b1-4)Glc
# How it was run: as §1
# [33] = biological target: Gal(b1-3)GalNAc(b1-4)Gal(b1-4)Glc
# How it was run: as §1
# [34] = biological target: Gal(b1-3)GalNAc(b1-4)[Neu5Ac(a2-3)]Gal(b1-4)Glc
# How it was run: as §1
# [35] = biological target: Gal(b1-3)GlcNAc
# How it was run: as §1
# [36] = biological target: Gal(b1-3)GlcNAc(a1-3)Gal(b1-4)GlcNAc
# How it was run: as §1
# [37] = biological target: Gal(b1-3)GlcNAc(a1-6)Gal(b1-4)GlcNAc
# How it was run: as §1
# [38] = biological target: Gal(b1-3)GlcNAc(b1-2)Man
# How it was run: as §1
binder,measurement,setting,value
B1,glycan array binding signal (z-score),[1],-0.03
same,glycan array binding signal (z-score),[2],0.059
same,glycan array binding signal (z-score),[3],-0.093
same,glycan array binding signal (z-score),[4],-0.109
same,glycan array binding signal (z-score),[5],-0.226
same,glycan array binding signal (z-score),[6],-0.085
same,glycan array binding signal (z-score),[7],-0.073
same,glycan array binding signal (z-score),[8],-0.133
same,glycan array binding signal (z-score),[9],-0.174
same,glycan array binding signal (z-score),[10],-0.203
same,glycan array binding signal (z-score),[11],-0.142
same,glycan array binding signal (z-score),[12],-0.096
same,glycan array binding signal (z-score),[13],-0.123
same,glycan array binding signal (z-score),[14],-0.102
same,glycan array binding signal (z-score),[15],0.053
same,glycan array binding signal (z-score),[16],-0.104
same,glycan array binding signal (z-score),[17],-0.039
same,glycan array binding signal (z-score),[18],0.005
same,glycan array binding signal (z-score),[19],0.031
same,glycan array binding signal (z-score),[20],0.028
same,glycan array binding signal (z-score),[21],0.003
same,glycan array binding signal (z-score),[22],0.136
same,glycan array binding signal (z-score),[23],-0.172
same,glycan array binding signal (z-score),[24],-0.196
same,glycan array binding signal (z-score),[25],-0.154
same,glycan array binding signal (z-score),[26],-0.099
same,glycan array binding signal (z-score),[27],-0.091
same,glycan array binding signal (z-score),[28],-0.058
same,glycan array binding signal (z-score),[29],-0.196
same,glycan array binding signal (z-score),[30],-0.15
same,glycan array binding signal (z-score),[31],-0.147
same,glycan array binding signal (z-score),[32],-0.084
same,glycan array binding signal (z-score),[33],-0.005
same,glycan array binding signal (z-score),[34],-0.049
same,glycan array binding signal (z-score),[35],-0.053
same,glycan array binding signal (z-score),[36],0.018
same,glycan array binding signal (z-score),[37],-0.107
same,glycan array binding signal (z-score),[38],-0.112
